Residue numbers refer to the chain shown, from its start. “And” between values parts separate entries of the source, which are not always exact repeats. Equal values may be shown once. The source gives many values for each of these; only a part stands here.
Assays:
Format in all cases: cell-based
FPR1 R201A = target: T1, FPR1 R201A (Homo sapiens, UniProt P21462, R201A); assay: cAMP inhibition assay, FPR1 R201A
T1 construct: expressed in transfected cells; host or cells: HeLa cells, transient, pcDNA3.1(+)
T1 sequence (P21462 1-350 R201A): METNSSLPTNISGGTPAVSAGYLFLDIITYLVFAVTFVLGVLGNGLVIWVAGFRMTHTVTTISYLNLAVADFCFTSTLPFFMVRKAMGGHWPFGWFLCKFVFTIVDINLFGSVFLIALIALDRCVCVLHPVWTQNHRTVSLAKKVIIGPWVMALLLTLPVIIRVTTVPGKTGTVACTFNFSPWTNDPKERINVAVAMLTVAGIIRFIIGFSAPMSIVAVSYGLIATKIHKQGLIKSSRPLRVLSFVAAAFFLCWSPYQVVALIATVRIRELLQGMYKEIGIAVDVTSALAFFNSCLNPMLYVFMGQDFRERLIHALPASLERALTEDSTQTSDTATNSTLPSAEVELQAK
Description: (§1) FPR1 cDNA in the pcDNA3.1(+) vector (Invitrogen) was used as a template for gene manipulation. The mutations of FPR1 were introduced in the receptor through overlap extension PCR with elaborately designed primers (GENEWIZ, Suzhou, China). The sequences of the primers were listed in Supplementary Table 2. Two fragments of FPR1 (separated at mutated positions) were assembled into pre-cut pcDNA3.1(+) vectors with the ClonExpress Ultra One Step Cloning Kit (Vazyme Biotech, C115). Plasmids with FPR1 mutations were confirmed by DNA sequencing (GENEWIZ).
(§2) For functional studies, FPR1 and its mutants were expressed in HeLa cells as above. The cells were resuspended in HBSS buffer plus 5 mM HEPES, 0.1% BSA (w/v) and 0.5 mM 3-isobutyl-1-methylxanthine and seeded into 384-well plates. […] AG-14 was synthesized by Sungening Biotechnology (Shenzhen, China). Different concentrations of the ligands were prepared plus a fixed dose of forskolin with the buffer above. […] Intracellular cAMP levels were measured with the LANCE Ultra cAMP kit (PerkinElmer, TRF0263) following the manufacturer’s instructions. […] Intracellular cAMP levels were calculated according to the TR-FRET signals of the samples and cAMP standards.
(§3) The data were analyzed with Prism 6.0 (GraphPad, San Diego, CA). For dose-response analysis, the curves were plotted with the log[agonist] vs. response equation (three parameters) in the software. Data points were presented as the percentages (mean ± SEM) of the maximal cAMP level for each construct, from at least three independent experiments, as indicated in figure legends. The pEC50 values were the negative logarithm of the EC50 values, which were obtained from the dose-response curves. For cell surface expression, data points were presented as the percentages (mean ± SEM) of the flow cytometry fluorescence signals of WT FPR1. For statistical comparison, a p-value of 0.05 or lower is considered statistically significant.

FPR1 WT = target: T2, FPR1 WT (Homo sapiens, UniProt P21462); assay: cAMP inhibition assay, WT FPR1
T2 construct: expressed in transfected cells; host or cells: HeLa cells, transient, pcDNA3.1(+)
T2 sequence (P21462 1-350): T1 sequence (P21462 1-350 R201A) with A201R
Description: as §1, §2, §3

FPR1 Y257A = target: T3, FPR1 Y257A (Homo sapiens, UniProt P21462, Y257A); assay: cAMP inhibition assay, FPR1 Y257A
T3 construct: expressed in transfected cells; host or cells: HeLa cells, transient, pcDNA3.1(+)
T3 sequence (P21462 1-350 Y257A): T1 sequence (P21462 1-350 R201A) with A201R, Y257A
Description: as §1, §2, §3

FPR1 F291A = target: T4, FPR1 F291A (Homo sapiens, UniProt P21462, F291A); assay: cAMP inhibition assay, FPR1 F291A
T4 construct: expressed in transfected cells; host or cells: HeLa cells, transient, pcDNA3.1(+)
T4 sequence (P21462 1-350 F291A): T1 sequence (P21462 1-350 R201A) with A201R, F291A
Description: as §1, §2, §3

FPR1 W254A = target: T5, FPR1 W254A (Homo sapiens, UniProt P21462, W254A); assay: cAMP inhibition assay, FPR1 W254A
T5 construct: expressed in transfected cells; host or cells: HeLa cells, transient, pcDNA3.1(+)
T5 sequence (P21462 1-350 W254A): T1 sequence (P21462 1-350 R201A) with A201R, W254A
Description: as §1, §2, §3

[1] = Log[M] -4.3, single replicate readings
[2] = Log[M] -5.0, single replicate readings
[3] = Log[M] -5.7, single replicate readings
[4] = Log[M] -6.4, single replicate readings
[5] = Log[M] -7.1, single replicate readings
[6] = Log[M] -7.8, single replicate readings
[7] = Log[M] -8.5, single replicate readings

cAMP response, source data of Fig. 5c (FPR1 F291A; [3]): 64.0 and 54.4
SMILES: COc1cc(C=NNC(=O)c2ccc3c(c2)OCO3)ccc1OCc1ccccc1 [Fig. 5c]
cAMP response, source data of Fig. 5c (FPR1 R201A; [1]): 58.4 and 56.8 and 52.6 and 44.5 and 35.1 and 29.1
cAMP response, source data of Fig. 5c (FPR1 R201A; [2]): 64.6 and 66.5 and 67.4 and 33.1 and 35.1 and 7.1
cAMP response, source data of Fig. 5c (FPR1 R201A; [3]): 27.4 and 85.5 and 103.1 and 79.2 and 67.9 and 43.7
cAMP response, source data of Fig. 5c (FPR1 R201A; [4]): 123.9 and 103.4 and 80.5 and 44.6 and 79.3 and 87.5
cAMP response, source data of Fig. 5c (FPR1 R201A; [5]): 96.2 and 104.2 and 101.1 and 82.1 and 104.5 and 73.8
cAMP response, source data of Fig. 5c (FPR1 R201A; [6]): 94.8 and 131.9 and 95.9 and 99.5 and 115.2 and 72.8
cAMP response, source data of Fig. 5c (FPR1 R201A; [7]): 86.8 and 86.4 and 117.5 and 87.0 and 119.9 and 92.1
cAMP response, source data of Fig. 5c (FPR1 WT; [1]): 20.4 and 42.5 and 37.3 and 30.7 and 33.1 and 22.2
cAMP response, source data of Fig. 5c (FPR1 WT; [2]): 30.4 and 35.6 and 42.4 and 19.5 and 36.4 and 24.0
cAMP response, source data of Fig. 5c (FPR1 WT; [3]): 40.4 and 50.7 and 84.2 and 40.3 and 33.6 and 25.9
cAMP response, source data of Fig. 5c (FPR1 WT; [4]): 87.5 and 65.8 and 43.6 and 78.3 and 56.9 and 62.0
cAMP response, source data of Fig. 5c (FPR1 WT; [5]): 77.7 and 86.3 and 96.2 and 64.2 and 98.0 and 81.7
cAMP response, source data of Fig. 5c (FPR1 WT; [6]): 97.4 and 88.7 and 121.7 and 96.9 and 127.4 and 112.3
cAMP response, source data of Fig. 5c (FPR1 WT; [7]): 121.5 and 92.5 and 68.2 and 113.1 and 100.9 and 59.4
cAMP response, source data of Fig. 5c (FPR1 Y257A; [1]): 51.7 and 61.9 and 39.5 and 51.2 and 43.2 and 15.4
cAMP response, source data of Fig. 5c (FPR1 Y257A; [2]): 60.7 and 49.4 and 56.6 and 54.8 and 51.3 and -1.5
cAMP response, source data of Fig. 5c (FPR1 Y257A; [3]): 54.9 and 91.2 and 101.7 and 113.5 and 44.6 and 61.0
cAMP response, source data of Fig. 5c (FPR1 Y257A; [4]): 102.6 and 110.8 and 130.2 and 115.3 and 94.4 and 80.2
cAMP response, source data of Fig. 5c (FPR1 Y257A; [5]): 117.3 and 89.4 and 110.5 and 134.7 and 130.9 and 78.0
cAMP response, source data of Fig. 5c (FPR1 Y257A; [6]): 114.8 and 96.3 and 109.1 and 94.8 and 116.1 and 105.1
cAMP response, source data of Fig. 5c (FPR1 Y257A; [7]): 94.4 and 94.5 and 98.8 and 97.3 and 91.9 and 86.9
cAMP response, source data of Fig. 5c (FPR1 F291A; [4]): 101.2 and 95.2 and 83.2 and 72.7 and 84.6 and 98.0
cAMP response, source data of Fig. 5c (FPR1 F291A; [5]): 106.8 and 85.5 and 106.6 and 93.8 and 100.2 and 96.3
cAMP response, source data of Fig. 5c (FPR1 F291A; [6]): 119.7 and 75.8 and 106.3 and 116.4 and 90.6 and 91.4
cAMP response, source data of Fig. 5c (FPR1 F291A; [7]): 104.4 and 100.2 and 83.9 and 93.4 and 104.9 and 113.0
cAMP response, source data of Fig. 5c (FPR1 W254A; [1]): 36.8 and 58.6 and 57.6 and 38.5 and 42.8 and 49.4
cAMP response, source data of Fig. 5c (FPR1 W254A; [2]): 47.1 and 60.3 and 62.9 and 53.0 and 65.6 and 68.0
cAMP response, source data of Fig. 5c (FPR1 W254A; [3]): 100.6 and 95.4 and 94.1 and 72.8 and 65.9 and 77.2
cAMP response, source data of Fig. 5c (FPR1 W254A; [4]): 113.5 and 148.2 and 135.8 and 93.1 and 95.8 and 83.7
cAMP response, source data of Fig. 5c (FPR1 W254A; [5]): 91.1 and 103.4 and 87.4 and 89.1 and 118.6 and 116.3
cAMP response, source data of Fig. 5c (FPR1 W254A; [6]): 103.6 and 105.4 and 122.2 and 126.9 and 94.2 and 83.4
cAMP response, source data of Fig. 5c (FPR1 W254A; [7]): 91.3 and 89.9 and 82.5 and 100.6 and 78.2 and 121.6

— paper PMC9445081, “Structural basis for recognition of N-formyl peptides as pathogen-associated molecular patterns” (Nature Communications, 2022)
